Data: the supplement of paper PMC9135407
Values joined by “and” are separate entries in the source; they are usually repeats but may differ in a detail not shown here. Equal entries are not always repeated. Structures can show the parent of a compound that is named as a salt. Hit rate of the full screen: of about 5,800 compounds, about 620 (11%) showed activity.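 Rule for the calls: active = score above a cut-off or among the top three wells of a plate; in these data no inactive exceeds 0.85.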 This is a selection; strong and weak results do not stand in their true shares.

Test system: primary human hepatic stellate cells (donor 1)
Assay: scaled lipid accumulation score (0 = DMSO-like, 1 = nortriptyline-like); higher = stronger HSC inactivation (lipid re-accumulation), active = hit call of the paper
Conditions: 48 h
[1] = library stock concentration: 10 mM
[2] = library stock concentration: 3.33 mM
[3] = library stock concentration: 1 mM
[4] = library stock concentration: 80 uM
[5] = library stock concentration: 400 uM
[6] = library stock concentration: 2 mM

**Q.** How did the “scaled lipid accumulation score” value [1] turn out when `Cc1ccccc1/C=C/C1=NCCN1` [Metrazoline oxalate] was run?
**A.** inactive: 0.381

**Q.** How did the “scaled lipid accumulation score” value [2] turn out when `O=C(Nc1ccc(-c2cn[nH]c2)cc1)C1COc2ccccc2O1` (configuration not stated) [Rho Kinase Inhibitor V] was run?
**A.** inactive: ≤ 0

**Q.** `COc1ccc2c(c1)c(CC(=O)Oc1ccc(-c3cc(=S)ss3)cc1)c(C)n2C(=O)c1ccc(Cl)cc1` was tested. Which “scaled lipid accumulation score” value [3] did it give?
**A.** inactive: ≤ 0

**Q.** `CC(=O)O[C@]1(C(C)=O)CC[C@H]2[C@@H]3C=C(C)C4=CC(=O)CC[C@@H]4[C@H]3CC[C@@]21C` [Nomegestrol acetate] was tested. Which “scaled lipid accumulation score” value did it give?
**A.** inactive: ≤ 0

**Q.** For `COc1ccc(CCN(C)CCc2ccc(OC)c(OC)c2)cc1OC` [YS-035 hydrochloride], which “scaled lipid accumulation score” value [1] is on record?
**A.** inactive: 0.011 and inactive: 0.112

**Q.** What does the source list for `NC(=O)c1noc([C@H](CCCC2CCCCC2)CC(=O)NO)n1`?
**A.** scaled lipid accumulation score [2]: inactive: ≤ 0; scaled lipid accumulation score [1]: inactive: ≤ 0

**Q.** Which “scaled lipid accumulation score” value [1] does the source give for `CC[N+](CC)(CC)CC` [Tetraethylammonium chloride] here?
**A.** inactive: ≤ 0

**Q.** Which “scaled lipid accumulation score” value [4] does the source give for `Cc1cccc(-c2[nH]c(C(C)(C)C)nc2-c2ccc3nccnc3c2)n1` here?
**A.** inactive: 0.053

**Q.** What about the “scaled lipid accumulation score” value [5] of the same compound?
**A.** inactive: ≤ -0.009

**Q.** What about the “scaled lipid accumulation score” value [6] of the same compound?
**A.** inactive: ≤ -0.009

**Q.** What about the “scaled lipid accumulation score” value [2] of the same compound?
**A.** inactive: ≤ 0

**Q.** And the “scaled lipid accumulation score” value [1]?
**A.** inactive: ≤ 0 and inactive: 0.077 and inactive: 0.047

**Q.** With `CC(C)Oc1cccc(-n2c(CCc3c[nH]c4ccc(Br)cc34)nc3ccccc3c2=O)c1` as the compound, how does the “scaled lipid accumulation score” value [1] read?
**A.** inactive: ≤ 0

**Q.** How did the “scaled lipid accumulation score” value [5] turn out when `Cc1ccc(C(=O)Nc2ccc(CN3CCN(C)CC3)c(C(F)(F)F)c2)cc1C#Cc1cnc2cccnn12` was run?
**A.** active: 0.949

**Q.** What about the “scaled lipid accumulation score” value [6] of the same compound?
**A.** active: 1.1

**Q.** What about the “scaled lipid accumulation score” value [1] of the same compound?
**A.** active: 1.14

**Q.** How did the “scaled lipid accumulation score” value (library stock concentration: 6.1 mM) turn out when `CC(=O)OC/C=C(C)/C=C/C=C(C)/C=C/C1=C(C)CCCC1(C)C` [Vitamin a (acetate)] was run?
**A.** inactive: ≤ -0.006

**Q.** With `CC(=O)OC/C=C(C)/C=C/C=C(C)/C=C/C1=C(C)CCCC1(C)C` [Retinyl acetate] as the compound, how does the “scaled lipid accumulation score” value [1] read?
**A.** inactive: 0.223

**Q.** With `NS(=O)(=O)c1cc2c(cc1Cl)N=C(CSCc1ccccc1)NS2(=O)=O` [Benzthiazide] as the compound, how does the “scaled lipid accumulation score” value read?
**A.** inactive: ≤ 0

**Q.** And the “scaled lipid accumulation score” value [1]?
**A.** inactive: ≤ 0

**Q.** For `O=C1C(CC[S+]([O-])c2ccccc2)C(=O)N(c2ccccc2)N1c1ccccc1` (configuration not stated) [Sulfinpyrazone], which “scaled lipid accumulation score” value is on record?
**A.** inactive: ≤ 0

**Q.** What about the “scaled lipid accumulation score” value (library stock concentration: 4.9 mM) of the same compound?
**A.** inactive: ≤ 0

**Q.** And the “scaled lipid accumulation score” value [1]?
**A.** inactive: 0.024 and inactive: ≤ 0

**Q.** Which “scaled lipid accumulation score” value [4] does the source give for `CCn1c(=O)c(-c2ccc(-c3cncs3)cc2Cl)cc2cnc(Nc3ccc(N4CCN(C)CC4)cc3)nc21` here?
**A.** inactive: 0.014

**Q.** And the “scaled lipid accumulation score” value [5]?
**A.** inactive: ≤ 0

**Q.** What about the “scaled lipid accumulation score” value [6] of the same compound?
**A.** inactive: ≤ 0

**Q.** And the “scaled lipid accumulation score” value [1]?
**A.** inactive: ≤ 0

**Q.** For `OC[C@@H](O)[C@@H](O)CO`, which “scaled lipid accumulation score” value [1] is on record?
**A.** inactive: ≤ 0

**Q.** For `Cc1cnc(Nc2ccc(N3CCN(C)CC3)cc2)nc1Nc1cccc(S(=O)(=O)NC(C)(C)C)c1`, which “scaled lipid accumulation score” value [2] is on record?
**A.** inactive: 0.318

**Q.** And the “scaled lipid accumulation score” value [1]?
**A.** inactive: 0.463

**Q.** With `CCCn1c(=O)c2[nH]c(-c3ccccc3)nc2n(CCC)c1=O` [1,3-Dipropyl-8-phenylxanthine] as the compound, how does the “scaled lipid accumulation score” value [1] read?
**A.** inactive: ≤ 0

**Q.** For `CC(C)CCN1c2nc(Nc3cc(F)c(O)c(F)c3)ncc2N(C)C(=O)C1C` (configuration not stated), which “scaled lipid accumulation score” value [4] is on record?
**A.** inactive: ≤ -0.001

**Q.** What about the “scaled lipid accumulation score” value [5] of the same compound?
**A.** inactive: ≤ -0.001 and inactive: ≤ -0.005

**Q.** And the “scaled lipid accumulation score” value [6]?
**A.** inactive: ≤ -0.001 and inactive: 0.123

**Q.** What about the “scaled lipid accumulation score” value [2] of the same compound?
**A.** inactive: ≤ 0

**Q.** And the “scaled lipid accumulation score” value [1]?
**A.** inactive: ≤ 0 and inactive: ≤ -0.001 and inactive: 0.36

**Q.** Which “scaled lipid accumulation score” value [1] does the source give for `O=C(Nc1cc(C(F)(F)F)cc(C(F)(F)F)c1)c1cc(Cl)ccc1O` here?
**A.** active: 1.61

**Q.** For `CNC(=O)c1nn(C)c2c1C(C)(C)Cc1cnc(Nc3ccc(N4CCN(C)CC4)cc3)nc1-2`, which “scaled lipid accumulation score” value [2] is on record?
**A.** inactive: 0.148

**Q.** What about the “scaled lipid accumulation score” value [1] of the same compound?
**A.** inactive: ≤ 0

**Q.** Which “scaled lipid accumulation score” value [2] does the source give for `CC(C)(O)CC[C@@H](O)[C@](C)(O)[C@H]1CC[C@@]2(O)C3=CC(=O)[C@@H]4C[C@@H](O)[C@@H](O)C[C@]4(C)[C@H]3CC[C@]12C` [20-Hydroxyecdysone] here?
**A.** inactive: ≤ 0

**Q.** And the “scaled lipid accumulation score” value [1]?
**A.** inactive: ≤ 0

**Q.** `Cc1cc2nc3ccc(N(C)C)cc3[s+]c2cc1N` was tested. Which “scaled lipid accumulation score” value [1] did it give?
**A.** inactive: 0.114

**Q.** How did the “scaled lipid accumulation score” value (library stock concentration: 7 mM) turn out when `Nc1ccc(S(=O)(=O)Nc2ccc(Cl)nn2)cc1` [Sulfachlorpyridazine] was run?
**A.** inactive: ≤ 0

**Q.** What about the “scaled lipid accumulation score” value [1] of the same compound?
**A.** inactive: ≤ 0

**Q.** How did the “scaled lipid accumulation score” value turn out when `Nc1ccc(S(=O)(=O)Nc2ccc(Cl)nn2)cc1` [Sulfachloropyridazine] was run?
**A.** inactive: ≤ 0

**Q.** With `CC(=O)NC(C(=O)O)C(C)(C)SN=O` (configuration not stated) [Snap (s-nitroso-n-acetylpenicillamine)] as the compound, how does the “scaled lipid accumulation score” value [1] read?
**A.** inactive: 0.171

**Q.** `CC(=O)NC(C(=O)O)C(C)(C)SN=O` (configuration not stated) [S-Nitroso-N-acetylpenicillamine] was tested. Which “scaled lipid accumulation score” value [1] did it give?
**A.** inactive: ≤ -0.055

**Q.** For `CN(C)CCC1(c2ccc(Cl)cc2)Cc2ccccc2C(=O)O1` (configuration not stated), which “scaled lipid accumulation score” value [1] is on record?
**A.** inactive: 0.575

**Q.** For `C[C@H]1C[C@H]2[C@@H]3CCC4=CC(=O)C=C[C@]4(C)[C@@]3(Cl)[C@@H](O)C[C@]2(C)[C@@]1(O)C(=O)CO` [Beclomethasone], which “scaled lipid accumulation score” value [1] is on record?
**A.** inactive: ≤ 0 and inactive: 0.148

**Q.** Which results are given for `Oc1ccc(O)cc1` [Hydroquinone]?
**A.** scaled lipid accumulation score [1]: inactive: ≤ -0.07 and inactive: 0.155; scaled lipid accumulation score (library stock concentration: 18.2 mM): inactive: ≤ 0

**Q.** What does the source list for `CN1CCN(c2cccc(Nc3nc4c(-c5ccc(S(C)(=O)=O)cc5)cccn4n3)c2)CC1`?
**A.** scaled lipid accumulation score [2]: inactive: ≤ 0; scaled lipid accumulation score [1]: inactive: 0.707

**Q.** For `CN[C@@H](C)C(=O)N[C@H](C(=O)N1CCC[C@H]1C(=O)Nc1snnc1-c1ccccc1)C1CCCCC1`, which “scaled lipid accumulation score” value [2] is on record?
**A.** inactive: ≤ 0

**Q.** And the “scaled lipid accumulation score” value [1]?
**A.** inactive: 0.5

**Q.** `CC1CCC(NC(=O)N(CCCl)N=O)CC1` (configuration not stated) [Semustine] was tested. Which “scaled lipid accumulation score” value (library stock concentration: 8.1 mM) did it give?
**A.** inactive: ≤ 0

**Q.** And the “scaled lipid accumulation score” value [1]?
**A.** inactive: ≤ -0.027

**Q.** Which “scaled lipid accumulation score” value [1] does the source give for `Cn1cc(C(=O)OCC2CCN(CCNS(C)(=O)=O)CC2)c2ccccc21` here?
**A.** inactive: 0.41

**Q.** What does the source list for `CC(C)(C)c1cc(C(=O)C(C#N)=NNc2cccc(Cl)c2)no1`?
**A.** scaled lipid accumulation score [2]: inactive: ≤ -0.009; scaled lipid accumulation score [1]: inactive: ≤ 0

**Q.** What does the source list for `C#C[C@]1(O)CC[C@H]2[C@@H]3[C@H](C)CC4=C(CCC(=O)C4)[C@H]3CC[C@@]21C` [Tibolone]?
**A.** scaled lipid accumulation score [3]: inactive: ≤ 0; scaled lipid accumulation score (library stock concentration: 6.4 mM): inactive: ≤ 0

**Q.** For `C#C[C@]1(O)CC[C@H]2[C@@H]3[C@H](C)CC4=C(CCC(=O)C4)[C@H]3CC[C@@]21C`, which “scaled lipid accumulation score” value [1] is on record?
**A.** inactive: ≤ 0

**Q.** With `OC[C@@H](O)[C@@H](O)[C@H](O)[C@@H](O)CO` as the compound, how does the “scaled lipid accumulation score” value [1] read?
**A.** inactive: 0.003

**Q.** Which “scaled lipid accumulation score” value [2] does the source give for `OC[C@@H](O)[C@@H](O)[C@H](O)[C@@H](O)CO` [Sorbitol] here?
**A.** inactive: ≤ 0

**Q.** What about the “scaled lipid accumulation score” value [1] of the same compound?
**A.** inactive: ≤ 0
